Some of the results follow. Shown are side measurements of this screen, not its main read-out; they come without a call. Most of these compounds were active or inconclusive in the main read-out, so they are no random draw. Words in brackets tell the shape of the fitted curve; partial curves, single points and poor fits give uncertain potencies.
Tags tell the direction and shape of the fitted curve.

The target in this test is Catechol O-methyltransferase (Homo sapiens) (UniProt P21964). The experiment in a line: Confirmatory Screen for Target Class Profiling of Small Molecule Inhibitors of Methyltransferases (AID 1745852).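 Also: inhibitor potency for blocking SAH production.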 As to conditions: MTase-Glo luminescence, SAH detection, recombinant enzyme; measured here: COMT inhibition potency.
Chain of UniProt P21964 (P21964 whole entry, looked up): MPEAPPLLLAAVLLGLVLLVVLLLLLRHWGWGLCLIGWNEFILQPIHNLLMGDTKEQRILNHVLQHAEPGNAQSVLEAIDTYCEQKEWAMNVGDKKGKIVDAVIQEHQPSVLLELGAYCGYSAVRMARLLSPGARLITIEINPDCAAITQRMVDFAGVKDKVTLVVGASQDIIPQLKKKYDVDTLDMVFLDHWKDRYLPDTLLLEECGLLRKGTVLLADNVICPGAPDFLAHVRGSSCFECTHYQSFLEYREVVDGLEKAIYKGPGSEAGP
As for `N#Cc1cn([C@@H]2O[C@H](CO)[C@H](O)[C@@H]2O)c2ncnc(N)c12`, the IC50 (in general, the concentration that inhibits the measured activity by half) was 34.1 µM [falling, partial curve].

For the compound `N#C/C(=C/c1ccc(O)c(O)c1)C(N)=S`, the IC50 was 1.37 µM [rising, full curve].

Turning to `CC1Oc2cc3c(-c4c(O)cc(O)c5c(O)c6c(cc45)OC(C)C(C)C6=O)c(O)cc(O)c3c(O)c2C(=O)C1C` (stereo not given), the 50% inhibitory concentration (IC50) was 21.5 µM [falling, partial curve].

As for `C[C@H]1CCC[C@H](O)CCC/C=C/c2cc(O)cc(O)c2C(=O)O1`, the half-inhibitory concentration (IC50) is 2.41 µM [falling, full curve].

`NCC(O)c1cc(O)c(O)cc1F` (stereo not given): the IC50 was 7.69 µM [rising, partial curve].

In the case of `COc1cc(C(=O)O[C@H]2[C@@H]3C=CO[C@@H](O[C@@H]4O[C@H](CO)[C@@H](O)[C@H](O)[C@H]4O)[C@@H]3[C@@]3(CO)O[C@@H]23)ccc1O`, the IC50 is 2.96 µM [falling, full curve].

For `NC1CCc2cc(O)c(O)cc2C1` (stereo not given), the IC50 was 5.44 µM [rising, partial curve].

As for `CCC1CN2CCc3cc(OC)c(OC)cc3C2CC1CC1=NCCc2cc(O)c(OC)cc21` (stereo not given), the IC50 is 9.37 µM [falling, partial curve].

Consider `CN(N=O)c1ccc(O)c(O)c1`, for which the IC50 is 21.7 µM [falling, partial curve].

On to `C[C@H]1O[C@@H](O[C@H]2CC[C@]3(CO)C4CC[C@]5(C)[C@@H](C6=CC(=O)OC6)CC[C@]5(O)[C@@H]4CC[C@H]3C2)[C@H](O)[C@H](O)[C@@H]1O[C@@H]1O[C@H](CO)[C@@H](O)[C@H](O)[C@H]1O` (stereo not given in full), for which the IC50 was 0.359 µM [falling, full curve].
